Assay results: the supplement of paper PMC12217912
The other results are listed elsewhere or left out. Sequences were assembled here from the parent chain. Inactive controls read about 0.05.

B1: TEV protease; numbered along this chain (parent)
chain: MGESLFKGPRDYNPISSSICHLTNESDGHTTSLYGIGFGPFIITNKHLFRRNNGTLVVQSLHGVFKVKDTTTLQQHLVDGRDMIIIRMPKDFPPFPQKLKFREPQREERICLVTTNFQTKSMSSMVSDTSCTFPSGDGIFWKHWIQTKDGQCGSPLVSTRDGFIVGIHSASNFTNTNNYFTSVPKNFMELLTNQEAQQWVSGWRLNADSVLWGGHKVFMVKPEEPFQPVKEATQL

Variants of: B1
Assay: raw area under fraction-flipped curve 0-4 h after induction (AUC4h, not background-subtracted), DNA-recorder readout of cleavage of the substrate (dimensionless); higher = more cleavage of the substrate by the protease variant
Details: temperature: 34 °C; time window: 0-4 h after rhamnose induction
Experimental: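 In vivo DNA recorder in E. coli TOP10(DE3) ΔrhaA at 34 °C. Each TEVp single-site mutant (parent TEVp 0) is paired with a single-site variant of the 7-mer TEVs (canonical ENLYFQ|S). The substrate sits between flexible linkers in a Bxb1-sfGFP-TEVs-SsrA fusion, so cleavage stabilises Bxb1 and speeds flipping of a recombination array, read by NGS. The value is the raw area under the fraction-flipped curve over 0-4 h after rhamnose induction (AUC4h), with ≥20 reads per time point. It is not background-subtracted; inactive controls average about 0.047.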
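Also: Bxb1 expression induced with 0.2% (w/v) L-rhamnose at OD600 near 0.5, cultures sampled hourly, flipped fraction per protease–substrate barcode pair counted by paired-end Illumina sequencing.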

Variant | area with substrate ENLYFQA | area with substrate ENLYFQC | area with substrate ENLYFQD | area with substrate ENLYFQE | area with substrate ENLYFQF | area with substrate ENLYFQG | area with substrate ENLYFQI | area with substrate ENLYFQK | area with substrate ENLYFQL | area with substrate ENLYFQM | area with substrate ENLYFQP | area with substrate ENLYFQR | area with substrate ENLYFQS | area with substrate ENLYFQT | area with substrate ENLYFQV | area with substrate ENLYFQW | area with substrate ENLYFQN | area with substrate ENLYFQQ | area with substrate ENLYFQY | area with substrate ENLYFQH
S18F | 0.0817 | 0.106 | 0.0709 | 0.0443 | 0.0543 | 0.0712 | 0.0517 | 0.0541 | 0.0462 | 0.0977 | 0.0528 | 0.0561 | 0.0895 | 0.0653 | 0.0626 | 0.0562 | – | – | – | –
H47R | 0.0639 | 0.0588 | 0.0622 | – | 0.059 | – | 0.0601 | – | 0.0622 | 0.0564 | – | 0.0565 | 0.0578 | 0.0693 | – | 0.0585 | 0.0547 | 0.0371 | 0.0573 | –
H47A | 0.0522 | – | 0.0576 | – | – | 0.0731 | 0.0585 | – | – | – | – | 0.0531 | 0.0605 | – | 0.0575 | – | 0.0606 | – | – | 0.0619
L33F | 0.0612 | 0.053 | 0.0613 | – | 0.0483 | 0.0643 | 0.0656 | 0.0633 | – | 0.0597 | 0.0576 | 0.0637 | 0.0595 | 0.072 | 0.0675 | 0.0644 | 0.0482 | – | – | 0.0549
L33V | 0.074 | 0.094 | 0.0623 | 0.061 | 0.0794 | 0.126 | – | 0.0441 | 0.0663 | 0.0813 | – | 0.0591 | 0.0975 | 0.0774 | 0.0708 | – | 0.0815 | 0.0779 | 0.0681 | –
L33Q | 0.0905 | 0.0869 | 0.0675 | 0.0323 | – | – | 0.0616 | 0.0554 | 0.0978 | 0.0933 | 0.0637 | 0.0645 | 0.0852 | 0.0684 | 0.0729 | 0.0683 | 0.086 | – | – | 0.0706
G2Q | 0.0906 | 0.141 | 0.0639 | – | – | 0.111 | 0.0825 | 0.0685 | 0.0644 | – | 0.0655 | 0.0535 | 0.116 | 0.0679 | 0.0625 | – | 0.0801 | 0.0752 | – | 0.074
K46F | 0.0453 | 0.0518 | 0.0466 | – | – | – | – | 0.0613 | 0.0655 | – | – | 0.0442 | 0.071 | 0.0481 | – | 0.0502 | 0.0585 | 0.0596 | 0.0498 | –
K46E | 0.0594 | 0.0563 | 0.0541 | – | 0.052 | 0.0577 | 0.0524 | 0.0553 | 0.0524 | 0.0582 | 0.0539 | 0.0585 | 0.0606 | 0.0445 | 0.0495 | 0.0556 | 0.0575 | 0.0583 | 0.0418 | 0.0514
K46R | 0.109 | 0.115 | 0.0586 | – | – | 0.0891 | 0.0605 | 0.0607 | 0.058 | 0.0937 | 0.0623 | 0.0644 | 0.093 | 0.0652 | – | 0.0512 | – | 0.0632 | 0.0746 | –
G39S | 0.0416 | 0.0419 | 0.0512 | – | 0.0538 | 0.0484 | 0.0379 | 0.0422 | 0.0422 | 0.0478 | – | 0.0382 | 0.0467 | 0.0365 | – | 0.0425 | 0.042 | – | 0.045 | 0.0412
G39K | 0.0411 | 0.0423 | 0.0539 | – | 0.054 | 0.0216 | 0.0384 | 0.0414 | 0.0438 | 0.0446 | 0.0407 | 0.0363 | 0.0465 | 0.045 | – | – | 0.0508 | 0.0269 | – | 0.0464
G39V | 0.0434 | 0.0402 | – | – | 0.0402 | 0.0517 | 0.0484 | 0.0509 | 0.0506 | 0.041 | 0.054 | 0.0322 | 0.0426 | 0.0457 | 0.0343 | 0.0466 | 0.0442 | – | 0.0434 | 0.0434
R10I | 0.0741 | 0.119 | 0.0657 | – | 0.0819 | – | 0.0562 | 0.0647 | – | 0.0879 | – | 0.0578 | 0.0956 | 0.0349 | – | – | 0.0818 | – | – | –
S4P | 0.0899 | 0.133 | 0.0489 | – | 0.0708 | 0.0926 | 0.0673 | 0.0613 | 0.0656 | 0.075 | 0.0608 | 0.0564 | 0.1 | 0.0642 | 0.0675 | 0.0682 | 0.0799 | – | 0.0798 | 0.071
S4E | 0.131 | 0.15 | 0.0807 | – | – | – | – | 0.0495 | 0.0633 | 0.105 | – | 0.0508 | 0.121 | 0.0659 | – | 0.0713 | 0.0889 | – | 0.0721 | 0.0992
S4V | 0.125 | 0.141 | 0.111 | – | – | 0.134 | – | 0.0653 | 0.0709 | 0.102 | 0.0507 | 0.0531 | 0.13 | 0.0694 | – | 0.0883 | 0.112 | 0.0834 | 0.101 | 0.0998
H29W | 0.0894 | 0.105 | 0.0776 | 0.0781 | – | 0.0988 | – | 0.0598 | 0.06 | 0.106 | – | 0.0601 | 0.109 | 0.0742 | 0.0663 | – | 0.0709 | 0.0638 | – | 0.0808
H29Y | 0.0941 | 0.127 | 0.0776 | – | 0.0589 | – | 0.0554 | 0.0669 | 0.0717 | 0.125 | 0.0628 | 0.0537 | 0.113 | 0.0771 | 0.0702 | 0.0541 | 0.081 | 0.089 | 0.0682 | 0.0854
H29Q | 0.0968 | – | – | – | 0.0835 | – | 0.0682 | 0.0643 | 0.038 | 0.0784 | 0.0445 | 0.0666 | 0.106 | 0.0664 | 0.0803 | 0.0837 | – | – | 0.0589 | –
P40A | 0.0901 | 0.118 | – | – | – | 0.11 | 0.0714 | 0.0578 | 0.0516 | 0.0962 | – | 0.0497 | 0.108 | 0.0626 | 0.058 | 0.0807 | 0.0766 | 0.0658 | 0.0815 | 0.0808
C20E | 0.0349 | 0.0394 | – | – | 0.0581 | 0.0473 | 0.0396 | 0.0513 | 0.0462 | 0.0428 | 0.0448 | 0.0355 | 0.0478 | 0.0558 | 0.035 | 0.0453 | 0.0422 | 0.0443 | 0.0529 | 0.045
C20A | 0.0964 | 0.111 | 0.065 | – | – | – | 0.065 | – | 0.0512 | 0.0866 | – | 0.0534 | 0.0999 | 0.0663 | 0.0278 | 0.059 | 0.0914 | – | 0.072 | 0.0719
